# Assay results as given in publication PMC6212790.
# Some of the results follow. At the low end of the ranking the order means little.
# Target: T1, GST-Rok-C97-191 (UniProt O34857)
# T1 sequence: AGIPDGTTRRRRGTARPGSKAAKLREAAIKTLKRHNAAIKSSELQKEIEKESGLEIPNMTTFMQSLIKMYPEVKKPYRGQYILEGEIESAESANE
# Assay: protein binding microarray;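 further: rank score from −0.5 (least bound) to 0.5 (best bound)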
# Details: Rok is a gene silencer of Bacillus subtilis; high values mean tight binding; most listed sequences are background and not binding sites; double strand, one strand shown
row,Sequence,binding signal [E-score]
1,CCCAAAGC,-0.28
2,AACTGGTA,0.234
3,AGTCTTAG,0.0011
4,CAAATGTC,-0.000768
5,CTTGAGAA,-0.0606
6,AGACCAGG,-0.191
7,AGGTGAAA,-0.0356
8,CAGTTTAC,-0.0392
9,GATGGACC,-0.125
10,CGTCTTAA,-0.115
11,ATACGAAG,-0.0146
12,AACTCGTA,0.117
13,TCGGGTCA,-0.126
14,GCCTCTAA,-0.142
15,TACGGGCA,-0.291
16,AAAGGGCC,-0.318
17,CCGACGGC,-0.199
18,AACAAATC,-0.115
19,AATACTAC,0.383
20,CAACAATC,0.17
21,AGGATCAT,-0.0623
22,GTGCTTCA,-0.138
23,AAATTAAC,0.306
24,TAATAGTA,0.423
25,CCAACGGG,-0.315

row,Sequence,binding signal [E-score]
1,ATCTTAAG,0.0123
2,AGCATATG,0.175
3,CCTGTACA,0.017
4,AGGCATAA,0.0458
5,AATGCGCT,0.166
6,GTAAGAAA,0.309
7,CATCGAGA,-0.0556
8,AGCCGAAT,-0.182
9,AAATACGA,0.0254
10,ATTGCGCC,-0.134
11,CCTTACTA,0.154
12,CATCGGAC,0.0521
13,TCAAGTGA,-0.0808
14,ATAGGCAT,-0.211
15,CATGGGTA,0.101
16,AGACGATG,-0.0748
17,AAGGTGGA,-0.19
18,ACGAGCTC,-0.262
19,ACACAATC,-0.0311
20,TACGGTGA,0.106
21,TCAAGCCA,-0.14
22,AGTTTCCA,0.208
23,GGGAAACA,-0.0425
24,TCCAGCCA,-0.0215
25,CAGCTAAA,0.0943

row,Sequence,binding signal [E-score]
1,ACGATCAA,-0.0674
2,ACGCGGAC,-0.14
3,AGCCCGCT,-0.168
4,AACACGCC,-0.251
5,AGTCCACA,-0.159
6,ATAACAAG,0.041
7,AGACGTAC,0.0127
8,CAATGGAG,-0.117
9,GGTTGCGA,0.017
10,ACCCGCCA,-0.252
11,ACCCTCAA,-0.196
12,CTTTCGAC,-0.176
13,AAGTTATG,0.276
14,CGCTGGAA,-0.132
15,ATGCGCAG,-0.0952
16,AGTGACTG,0.0386
17,AACGGCTA,0.0484
18,CCGCAGAG,-0.0443
19,AAACCAGC,-0.0922
20,CATATAAC,0.177
21,CGAGGAAG,-0.101
22,GTAAAGAA,-0.0367
23,CGTAATAC,0.245
24,TCAACCAA,-0.0448
25,CGCCTGGC,-0.292

row,Sequence,binding signal [E-score]
1,GGGGTTCA,-0.161
2,ACCGAGTG,0.0374
3,CCTTTCAG,-0.274
4,CGGCATTA,0.107
5,ACGGCCGG,-0.0827
6,AACGCGCA,-0.0753
7,ACAGACGG,0.000749
8,GCTTTTCA,0.0633
9,CACAATCC,-0.0201
10,GTCCGAAC,-0.0482
11,ACAATTGT,0.183
12,ACTAGGAT,0.211
13,GCAGGGTA,-0.153
14,GACGAGCA,-0.242
15,AGGGGAAA,-0.141
16,CGACGGTC,-0.0957
17,CAGCAAAG,-0.231
18,AACAGTCG,-0.126
19,AAAATCCT,0.0937
20,ACCCTAGA,0.0383
21,CCTCCGGA,-0.16
22,TAAATGCA,0.289
23,CTGGATGC,-0.208
24,CTGGACGC,-0.147
25,ACAATGGG,-0.0478

row,Sequence,binding signal [E-score]
1,GTGCCCAA,-0.21
2,TACGACGA,0.132
3,AGCAGCGC,-0.357
4,AAGAGTAA,0.129
5,GAGTGGCC,-0.275
6,CTTCCCTA,0.0507
7,TCGCATCA,-0.011
8,AGCTCCCT,-0.00716
9,ATTTACTC,0.234
10,GGCTGCAC,-0.191
11,GCCTAAGC,-0.303
12,ACGGACGG,-0.218
13,CCCGGAAG,-0.223
14,CTCAAAAA,-0.0271
15,CCAAGATA,0.236
16,CCAAAGGC,-0.323
17,CAATCTTA,0.172
18,ATAACCCC,-0.0751
19,AGCCCAGA,-0.113
20,AAGGCGGC,-0.303
21,CGTTCCGA,-0.149
22,GGACGAGA,-0.297
23,AACTGGCA,0.0501
24,AGGGGATA,-0.103
25,AGGAGTCA,-0.125

row,Sequence,binding signal [E-score]
1,TGATATCA,0.0885
2,GCGACCCC,-0.347
3,ATTTCATC,0.153
4,TCAAAACA,-0.175
5,GAGAGAAC,0.0649
6,TACCCGAA,0.0653
7,GGTCTCTA,0.0453
8,ACAAAAGC,0.0767
9,CATCCGAA,-0.234
10,CCTAGCAC,0.0425
11,GAATGGCC,-0.0392
12,CCACGGAA,0.0498
13,GGGGCGCA,-0.176
14,GTACATAA,0.328
15,CTTAAACC,-0.121
16,ATCGCTTA,0.189
17,CGGCTTCA,-0.239
18,CACTCCCA,-0.155
19,CGTAGTGC,-0.0672
20,ACGCAAGT,-0.0612
21,CACTTGCC,-0.249
22,CCTTCCGC,-0.233
23,AGGCGCTA,-0.139
24,GCATTTTA,0.18
25,ACCGCAAG,-0.109

row,Sequence,binding signal [E-score]
1,CATATGTA,0.36
2,GTATCGAA,0.0967
3,AAAATCAA,0.128
4,ATCAGCCA,-0.0137
5,CAGCAGCA,-0.111
6,AACATACT,0.0962
7,ACACAGAG,-0.0594
8,AGGTTGCG,-0.0431
9,CCTTGAAG,-0.164
10,GGTAAAAA,0.379
11,ACATGTAT,0.225
12,GGTCCTTA,0.0575
13,TAACGCCA,-0.113
14,CCGGATGC,-0.207
15,CATTACCA,0.171
16,ATCTGCAC,-0.138
17,GGCCCCCA,-0.428
18,CCGGGATC,-0.161
19,GCCGCCGC,-0.279
20,CGCTGGTC,-0.152
21,ACCTTGGA,-0.0509
22,GTGGAAAA,0.00209
